Test results as given in the supplement of paper PMC11741623.
This is one part of the list. Interaction screen of human proteins with wild-type SARS-CoV-2 proteins by split-DHFR complementation in yeast, 1 µg/mL methotrexate. Value = fitness of the pair (three or more lineages) minus that of the viral protein without a human partner, on a scale set by negative (0) and fused positive (1) controls, mean of up to three cultures; higher = more likely to interact. Active = false discovery rate below 0.05 (one-sided t-test) in at least one culture. Nearly all pairs are not hits, and differences among them are mostly noise (correlation between cultures about 0.3); most hits were seen in one culture only. Human sequences are the Swiss-Prot entries looked up by gene name; the clone may be another isoform. NSP2 values were corrected by the authors for a growth advantage. Listed are human proteins with a hit and a random twelfth of the others.

Columns and labels:
Experiment in all cases: yeast fitness gain over the viral ORF with no human partner (scaled fitness); higher = more likely to interact
SARS-CoV-2 NSP1 = target: SARS-CoV-2 NSP1
Method: (§1)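 Split mouse DHFR complementation in pooled diploid yeast: human ORFeome clones carry one fragment and viral ORFs the other; barcoded lineages compete in 1 µg/mL methotrexate and fitness is read by barcode sequencing in up to three cultures.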

SARS-CoV-2 NSP10 = target: SARS-CoV-2 NSP10
Method: as §1

SARS-CoV-2 NSP12 = target: SARS-CoV-2 NSP12
Method: as §1

SARS-CoV-2 NSP13 = target: SARS-CoV-2 NSP13
Method: as §1

SARS-CoV-2 NSP2 = target: SARS-CoV-2 NSP2
Method: as §1

SARS-CoV-2 NSP7 = target: SARS-CoV-2 NSP7
Method: as §1

SARS-CoV-2 NSP8 = target: SARS-CoV-2 NSP8
Method: as §1

SARS-CoV-2 ORF10 = target: SARS-CoV-2 ORF10
Method: as §1

SARS-CoV-2 ORF3A = target: SARS-CoV-2 ORF3A
Method: as §1

SARS-CoV-2 ORF3B = target: SARS-CoV-2 ORF3B
Method: as §1

SARS-CoV-2 ORF6 = target: SARS-CoV-2 ORF6
Method: as §1

SARS-CoV-2 ORF7B = target: SARS-CoV-2 ORF7B
Method: as §1

SARS-CoV-2 ORF8 = target: SARS-CoV-2 ORF8
Method: as §1

SARS-CoV-2 ORF9B = target: SARS-CoV-2 ORF9B
Method: as §1

SARS-CoV-2 S = target: SARS-CoV-2 S
Method: as §1

SARS-CoV-2 NSP15 = target: SARS-CoV-2 NSP15
Method: as §1

SARS-CoV-2 NSP4 = target: SARS-CoV-2 NSP4
Method: as §1

SARS-CoV-2 NSP5 = target: SARS-CoV-2 NSP5
Method: as §1

SARS-CoV-2 NSP6 = target: SARS-CoV-2 NSP6
Method: as §1

SARS-CoV-2 ORF7A = target: SARS-CoV-2 ORF7A
Method: as §1

[1] = target: SARS-CoV-2 ORF9Bwu (the 73-codon ORF)
Method: as §1

SARS-CoV-2 NSP9 = target: SARS-CoV-2 NSP9
Method: as §1

Measured: yeast fitness gain

B1: FKBPL, Q9UIM3 (protein)
chain: METPPVNTIGEKDTSQPQQEWEKNLRENLDSVIQIRQQPRDPPTETLELEVSPDPASQILEHTQGAEKLVAELEGDSHKSHGSTSQMPEALQASDLWYCPDGSFVKKIVIRGHGLDKPKLGSCCRVLALGFPFGSGPPEGWTELTMGVGPWREETWGELIEKCLESMCQGEEAELQLPGHSGPPVRLTLASFTQGRDSWELETSEKEALAREERARGTELFRAGNPEGAARCYGRALRLLLTLPPPGPPERTVLHANLAACQLLLGQPQLAAQSCDRVLEREPGHLKALYRRGVAQAALGNLEKATADLKKVLAIDPKNRAAQEELGKVVIQGKNQDAGLAQGLRKMFG
inactive: SARS-CoV-2 NSP1 = -0.00227 | SARS-CoV-2 NSP10 = -0.0956 | SARS-CoV-2 NSP12 = -0.0171 | SARS-CoV-2 NSP13 = 0.023 | SARS-CoV-2 NSP2 = -0.0622 | SARS-CoV-2 NSP7 = 0.0178 | SARS-CoV-2 NSP8 = 0.0512 | SARS-CoV-2 ORF10 = -0.0945 | SARS-CoV-2 ORF3A -0.12 | SARS-CoV-2 ORF3B -0.0426 | SARS-CoV-2 ORF6 = 0.0278 | SARS-CoV-2 ORF7B 0.0168 | SARS-CoV-2 ORF8 = -0.0299 | SARS-CoV-2 ORF9B 0.0545 | SARS-CoV-2 S -0.00626

B2: CD52, P31358 (protein)
chain: MKRFLFLLLTISLLVMVQIQTGLSGQNDTSQTSSPSASSNISGGIFLFFVANAIIHLFCFS
inactive: SARS-CoV-2 NSP1 = -0.0784 | SARS-CoV-2 NSP10 = 0.026 | SARS-CoV-2 NSP12 = -0.173 | SARS-CoV-2 NSP13 = -0.0509 | SARS-CoV-2 NSP15 = 0.0938 | SARS-CoV-2 NSP2 = -0.202 | SARS-CoV-2 NSP4 = -0.273 | SARS-CoV-2 NSP5 = -0.0678 | SARS-CoV-2 NSP6 = 0.0345 | SARS-CoV-2 NSP7 = -0.0377 | SARS-CoV-2 ORF10 = 0.0331 | SARS-CoV-2 ORF3B -0.0827 | SARS-CoV-2 ORF6 = -0.0183 | SARS-CoV-2 ORF7A -0.0334 | SARS-CoV-2 ORF7B 0.241 | SARS-CoV-2 ORF8 = 0.0333 | SARS-CoV-2 ORF9B 0.0266 | [1] 0.0797 | SARS-CoV-2 S 0.0456

B3: WBP2NL, Q6ICG8 (protein)
chain: MAVNQSHTENRRGALIPNGESLLKRSPNVELSFPQRSEGSNVFSGRKTGTLFLTSYRVIFITSCSISDPMLSFMMPFDLMTNLTVEQPVFAANFIKGTIQAAPYGGWEGQATFKLVFRNGDAIEFAQLMVKAASAAARGFPLRTLNDWFSSMGIYVITGEGNMCTPQMPCSVIVYGAPPAGYGAPPPGYGAPPAGYGAQPVGNEGPPVGYRASPVRYGAPPLGYGAPPAGYGAPPLGYGAPPLGYGTPPLGYGAPPLGYGAPPAGNEGPPAGYRASPAGSGARPQESTAAQAPENEASLPSASSSQVHS
inactive: SARS-CoV-2 NSP1 = -0.14 | SARS-CoV-2 NSP10 = -0.259 | SARS-CoV-2 NSP12 = -0.297 | SARS-CoV-2 NSP13 = 0.0104 | SARS-CoV-2 NSP2 = -0.128 | SARS-CoV-2 NSP5 = 0.026 | SARS-CoV-2 ORF10 = 0.0677 | SARS-CoV-2 ORF6 = -0.407 | SARS-CoV-2 ORF7A 0.0418 | SARS-CoV-2 ORF8 = -0.0243 | SARS-CoV-2 ORF9B 0.218

B4: SERPINB10, P48595 (protein)
chain: MDSLATSINQFALELSKKLAESAQGKNIFFSSWSISTSLTIVYLGAKGTTAAQMAQVLQFNRDQGVKCDPESEKKRKMEFNLSNSEEIHSDFQTLISEILKPNDDYLLKTANAIYGEKTYAFHNKYLEDMKTYFGAEPQPVNFVEASDQIRKDINSWVERQTEGKIQNLLPDDSVDSTTRMILVNALYFKGIWEHQFLVQNTTEKPFRINETTSKPVQMMFMKKKLHIFHIEKPKAVGLQLYYKSRDLSLLILLPEDINGLEQLEKAITYEKLNEWTSADMMELYEVQLHLPKFKLEDSYDLKSTLSSMGMSDAFSQSKADFSGMSSARNLFLSNVFHKAFVEINEQGTEAAAGSGSEIDIRIRVPSIEFNANHPFLFFIRHNKTNTILFYGRLCSP
inactive: SARS-CoV-2 NSP1 = -0.315 | SARS-CoV-2 NSP12 = 0.0414 | SARS-CoV-2 NSP13 = -0.166 | SARS-CoV-2 NSP2 = -0.601 | SARS-CoV-2 NSP6 = -0.171 | SARS-CoV-2 NSP7 = 0.0284 | SARS-CoV-2 ORF10 = -0.054 | SARS-CoV-2 ORF3B -0.0523 | SARS-CoV-2 ORF6 = -0.199 | SARS-CoV-2 ORF7A -0.00956 | SARS-CoV-2 ORF8 = 0.0615 | SARS-CoV-2 ORF9B -0.0578

B5: FBXO16, Q8IX29 (protein)
chain: MMAFAPPKNTDGPKMQTKMSTWTPLNHQLLNDRVFEERRALLGKWFDKWTDSQRRRILTGLLERCSLSQQKFCCRKLQEKIPAEALDFTTKLPRVLSLYIFSFLDPRSLCRCAQVCWHWKNLAELDQLWMLKCLRFNWYINFSPTPFEQGIWKKHYIQMVKELHITKPKTPPKDGFVIADVQLVTSNSPEEKQSPLSAFRSSSSLRKKNNSGEKALPPWRSSDKHPTDIIRFNYLDNRDPMETVQQGRRKRNQMTPDFSRQSHDKKNKLQDRTRLRKAQSMMSRRNPFPLCP
inactive: SARS-CoV-2 NSP1 = 0.0259 | SARS-CoV-2 NSP10 = -0.0202 | SARS-CoV-2 NSP12 = -0.0393 | SARS-CoV-2 NSP13 = -0.194 | SARS-CoV-2 NSP15 = -0.0209 | SARS-CoV-2 NSP2 = -0.0234 | SARS-CoV-2 NSP6 = -0.0336 | SARS-CoV-2 NSP8 = 0.136 | SARS-CoV-2 NSP9 = -0.0982 | SARS-CoV-2 ORF3A 0.0167 | SARS-CoV-2 ORF6 = -0.1 | SARS-CoV-2 ORF7A -0.0277 | SARS-CoV-2 ORF8 = 0.0415 | SARS-CoV-2 ORF9B -0.169
